# Reference: PMC6919601, “Identification of Plasmodium dipeptidyl aminopeptidase allosteric inhibitors by high throughput screening” (PLoS ONE, 2019)
# “And” between values parts separate entries of the source, which are not always exact repeats. Equal values may be shown once. Out of some 110,000 compounds screened, about 230 (0.21%) showed an effect of 50% or more. Some of the results follow.
# Molecular target: DPAP1 (Plasmodium falciparum, UniProt Q8IIJ9)
# Experiment: primary screen, percent inhibition; read by cleavage of a fluorogenic dipeptide substrate; higher = more effect of the substance
# Set-up: species or system P. falciparum D10 trophozoite lysates; single well
# 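Also: 30 min substrate incubation versus DMSO and 10 µM JCP410 controls.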
# Chain of DPAP1 (Q8IIJ9 whole entry, looked up): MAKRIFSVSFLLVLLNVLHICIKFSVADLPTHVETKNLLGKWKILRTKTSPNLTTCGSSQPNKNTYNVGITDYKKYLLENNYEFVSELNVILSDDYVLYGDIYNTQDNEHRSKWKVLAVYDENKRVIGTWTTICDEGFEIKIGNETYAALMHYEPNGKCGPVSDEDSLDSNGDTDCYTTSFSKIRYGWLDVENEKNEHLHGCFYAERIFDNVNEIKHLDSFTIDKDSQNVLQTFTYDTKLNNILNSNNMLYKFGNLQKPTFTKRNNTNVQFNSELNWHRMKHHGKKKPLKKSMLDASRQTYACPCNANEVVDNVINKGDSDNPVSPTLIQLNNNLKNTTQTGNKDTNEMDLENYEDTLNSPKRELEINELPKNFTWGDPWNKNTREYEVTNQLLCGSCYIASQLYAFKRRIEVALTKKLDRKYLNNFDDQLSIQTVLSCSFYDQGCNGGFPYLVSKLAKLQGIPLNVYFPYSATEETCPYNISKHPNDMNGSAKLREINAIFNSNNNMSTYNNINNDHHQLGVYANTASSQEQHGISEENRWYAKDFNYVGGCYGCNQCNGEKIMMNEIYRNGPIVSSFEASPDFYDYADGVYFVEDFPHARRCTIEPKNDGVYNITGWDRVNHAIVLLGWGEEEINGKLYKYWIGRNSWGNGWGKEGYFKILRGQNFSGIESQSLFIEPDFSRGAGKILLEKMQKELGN
row,SMILES,% Inhibition @ 10 uM
1,CCCN(CCO)Cc1cc(Br)ccc1OC,-0.0494%
2,Cc1ccc(N2C(=O)C(Cl)=C(N(C)c3ccccc3)C2=O)cc1,5.67%
3,CC(=O)C12CCCCC1CC1C3CC(C)[C@@]4(O)CC(O)CCC4(C)C3CCC12C (stereo partly drawn),5.66%
4,CC(NC(=O)c1cc(-c2ccco2)on1)c1ccccc1 (stereo not drawn),-1.84%
5,CCOC(=O)c1c(C)[nH]c(C)c1S(=O)(=O)NCCc1sccc1C,-7.13%
6,CC(C)CC(C(=O)NCC#N)c1cccc(-c2cccc(C(=O)N3CCN(CCO)CC3)c2)c1 (stereo not drawn),-1.41%
7,O=C(c1cnn2c1NC(c1ccccc1)CC2C(F)(F)F)N1CCOCC1 (stereo not drawn),0.687%
8,OC1CCN(Cc2c(F)cccc2Cl)CC1,4.51%
9,COc1cc(C2C3=C(CC(C)(C)CC3=O)N(C)C3=C2C(=O)CC(C)(C)C3)cc(Br)c1O,-5.66%
10,CC(c1ccccc1)N1C(=O)c2ccc(C(=O)Nc3ccccc3C(=O)O)cc2C1=O (stereo not drawn),3.21%
11,CC(=O)Nc1cccc(NC(=O)c2ccccc2Cl)c1,-5.65%
12,CC(C)C[C@H](NC(=O)c1ccc(-c2c(Cl)cc(C(=O)O)cc2Cl)cc1)C(=O)NCC#N,-6.56%
13,COc1cc(OC)cc(C(=O)Nc2ccccc2)c1,1.17%
14,O=C(Nc1cccc(C(F)(F)F)c1)c1cc2ccccc2c(=O)s1,-0.318%
15,CCOc1cccc2cc(-c3nc(-c4cccnc4)no3)c(=O)oc12,2.73%
16,CC1(C)CC(CCN2CCCC2)(c2ccccc2)CCO1 (stereo not drawn),-0.424%
17,CCCOc1ccc(C(=O)N(Cc2cccc(OC)c2)C2CCS(=O)(=O)C2)cc1 (stereo not drawn),-4.95%
18,O=C(NCCc1ccc(Cl)cc1)c1ccc(S(=O)(=O)N2CCOCC2)cc1,4.19%
19,O=C(Nc1ccc(S(=O)(=O)N2CCCCCC2)cc1)c1ccc(Cl)cc1Cl,-0.173%
20,Cc1ccc(OCCCn2c(CCCO)nc3ccccc32)cc1,3.8% and -3.26%
21,CCCn1c2ccccc2c2cnn(CC(=O)N3CCC(N4CCCCC4)CC3)c(=O)c21,-5.3%
22,CC(=O)c1cc2c(cc1NC(=O)c1ccc(Cl)cc1Cl)OCO2,-9.66%
23,CC(C)C1OCCN1CC1COC2(CCCCC2)O1 (stereo not drawn),-2.18%
24,CCC/N=c1\c(NS(=O)(=O)c2ccc(OC)c(OC)c2)c(O)oc2ccccc12,-3.33%
25,CC[C@H](NC(=O)[C@H](CC1(C)CCCCC1)/N=C(\C)NS(C)(=O)=O)C(=O)c1nc(-c2ccccc2)no1,-6.56%

row,SMILES,% Inhibition @ 10 uM
1,CC(C)C[C@H](NC(=O)OCC1CCCC1)C(=O)NCC#N,0.174%
2,Cc1oc2c(C)c(O)ccc2c(=O)c1-c1ccccc1,-5.69%
3,CCCC(=O)NCc1nc2ccccc2n1C,-7.44%
4,O=C1c2ccccc2C(=O)N1c1ccc(O)c2ccccc12,-2.91%
5,O=C(Nc1ccc(S(=O)(=O)Nc2ccccc2)cc1)C1CC1,-8.09%
6,O=C(O)c1c2ccccc2nc2ccccc12,-4.77%
7,CC(CCc1ccccc1)NC(=O)c1cccnc1Cl (stereo not drawn),-5.35%
8,CC1=C(C(=O)OCc2ccccc2)C(c2ccc(Cl)c(Cl)c2)NC(=O)N1C (stereo not drawn),15.6%
9,COc1ccc(NC(=O)CN(c2cccc3ccccc23)S(C)(=O)=O)cc1OC,-10.5%
10,CC(C)(C)C1CCC(OC(=O)C2CC=CCC2C(=O)OCC2CCCO2)CC1 (stereo not drawn),6.33%
11,CCC(COc1nnnc2ccccc12)NS(=O)(=O)c1ccc(-n2cnnn2)cc1 (stereo not drawn),-2.84%
12,COc1ccccc1N1C(=O)c2ccc(C(=O)Nc3ccccc3C(=O)NCC(C)C)cc2C1=O,-0.0619%
13,CCOC(=O)c1c(NC(C)=O)sc2c(O)c(Br)cc(Br)c12,-1.45%
14,Cc1ccc(S(=O)(=O)N2CCC(C(=O)NCCc3ccc(Cl)cc3)CC2)cc1,2.05%
15,C=CCN1C(=O)/C(=C\c2c[nH]c3ccccc23)C(=O)NC1=S,4.26%
16,O=C(NCCCN1CCc2ccccc2C1)c1ccc2c(c1)ncn2C1CCCC1,-1.34%
17,COc1ccc(CCNc2nc3c(c(C(F)(F)F)n2)CC(C)CC3)cc1OC (stereo not drawn),-2.49%
18,Cc1cc(C)n2cc(COc3ccccc3)nc2n1,-7.17%
19,Clc1ccc(-c2cn3c4c(sc3n2)CCCC4)cc1,7.15%
20,CCN(CC)S(=O)(=O)c1ccc(-c2csc(Nc3ccc(Cl)cc3)n2)cc1,-0.687%
21,Fc1ccc(CN2CCOCC2)c(F)c1,-1.78%
22,O=C(/C=C/c1ccc(Cl)cc1)Nc1ccc(Br)cc1,4.4%
23,CC(C)C(NC(=O)C1COc2ccccc2O1)C(C)C (stereo not drawn),-6.94%
24,COc1ccccc1/C=C1/C(=N)N2N=C(C(F)(F)F)SC2=NC1=O,-2.87%
25,Cc1c(NC(=O)Cn2cnc3c(=O)n(C)c(=O)n(C)c32)cccc1-c1nc2ccccc2o1,-0.473%

row,SMILES,% Inhibition @ 10 uM
1,OCCN1CCN(c2ncnc3c2c(-c2ccccc2)cn3-c2cccc(C(F)(F)F)c2)CC1,-5.93%
2,CC1CCc2c(C(=O)NC3CCCc4ccccc43)csc2C1 (stereo not drawn),-6.95%
3,COc1ccc(CCNC(=O)C2CCCNC2=O)cc1OC (stereo not drawn),0.128%
4,COc1cccc(N(CC(=O)N2CCC(Cc3ccccc3)CC2)S(=O)(=O)c2ccccc2)c1,7.5%
5,COc1ccc(CCNC(=O)CSc2nnc3ccccn23)cc1,3.47%
6,Cc1cc2c(c(O)n1)C(=O)O/C2=C\c1ccc(Cl)cc1Cl,0.611%
7,CC(NC(=O)c1ccc(CS(=O)(=O)Cc2ccccc2F)o1)c1ccc2c(c1)OCCO2 (stereo not drawn),-2.72%
8,Cc1onc(-c2ccccc2Cl)c1C(=O)NC1CCCCCC1,-4.75%
9,CCc1ccc(S(=O)(=O)Nc2ccc([N+](=O)[O-])cc2C)cc1,-1.25%
10,COc1cc([N+](=O)[O-])cc2c1NC(C(C)C)C1CC=CC21 (stereo not drawn),1%
11,COc1ccc(N(Cc2ccc(Br)cc2)C(=O)c2ccc(Cl)cc2Cl)cc1,-2.51%
12,COc1ccc(CN2CCC(Cc3ccccc3)CC2)cc1C,-0.192%
13,Cc1cc(=O)n2nc(N3CCCC(C(=O)NCc4cccnc4)C3)sc2n1 (stereo not drawn),1.38%
14,COc1cc2nc(O)c3sc4ccccc4c3c2cc1OC,-10.2%
15,O=C(Nc1ccc2c(c1)C(=O)NC2=O)c1ccccc1,1.42%
16,Cc1ccnc(NS(=O)(=O)c2ccc(NC(=O)C3CCCCC3)cc2)n1,-4.26%
17,CC(C)CSC1=NSC2=NC(=O)/C(=C\c3ccccc3)C(=N)N12,3.97%
18,COc1cccc(CSc2nc3ccccc3c3nc(CCc4c(C)n[nH]c4C)nn23)c1,4.81%
19,CN(C)CCCN(C(=O)c1ccccc1Br)c1nc2c(F)cccc2s1,8.55%
20,O=C(Nc1ccc(Br)cn1)c1cc2n(n1)C(C(F)(F)F)CC(c1ccccc1)N2 (stereo not drawn),50.4%
21,Cc1ccc(CNC(=O)NC(C)c2c(-n3cccc3)sc(C)c2C)cc1 (stereo not drawn),-8.96%
22,O=C(O)[C@@H]1CSC(c2ccc(F)cc2)N1 (stereo partly drawn),-3.38%
23,Cc1cccc(NC(=O)CSc2nc(-c3ccc(Cl)cc3)c[nH]2)c1,0.673%
24,Cc1nc2ccccc2c2oc(C(=O)N3CCC(Cc4ccccc4)CC3)cc12,-0.0115%
25,O=C(NCc1ccco1)C1CCN(c2nc3ccc(Br)cc3s2)CC1,-5.15%

row,SMILES,% Inhibition @ 10 uM
1,Cc1c(C(=O)N2CCN(Cc3ccccc3)CC2)oc2ccccc12,-6.52%
2,CCOc1cc(C)cc2oc(=O)c3c(c12)CCCC3,1.39%
3,COc1ccc(N2C(=O)CC(N3CCC(C(=O)O)CC3)C2=O)cc1 (stereo not drawn),-6.62%
4,COC(=O)CC[C@@]1(C)CN(C)[C@@H](C)CC1=O,-2.32%
5,N#CC1=C(N)Oc2[nH]nc(-c3ccc4c(c3)OCO4)c2C1c1ccc(Br)cc1 (stereo not drawn),0.82%
6,CC(=O)c1cccc(NC(=O)c2onc3c2CCCC3)c1,-1.04%
7,CCN(CC)CCNC(=O)Cn1ncc2c3ccccc3n(Cc3ccccc3F)c2c1=O,3.4%
8,CCc1nnc(NC(=O)Cc2noc3ccc(C)cc23)s1,-3.49%
9,COCc1nnc(NC(=O)c2ccc(OC)cc2OC)s1,1.91%
10,CCOC(=O)c1c(C)[nH]c(C)c1S(=O)(=O)N(C)CC(=O)Nc1nccs1,-5.72%
11,CCOc1ccc(C2Oc3c(OC)cccc3C3CC(c4ccccc4O)=NN32)cc1OC (stereo not drawn),0.0719%
12,Cn1c2c(c3cc(C4CCCCC4)ccc31)CCC/C2=N\O,-6.07%
13,CC(C)(C)c1cc(O)cc(=O)n1-c1ccccc1,-0.463%
14,CC(C)CCNC(=O)c1cccn1-c1nnc(N2CCCCCC2)s1,-5.15%
15,COc1cc2c(cc1OC)C(C)N(C(=O)c1ccccc1Cl)CC2 (stereo not drawn),-1.06%
16,COc1ccc(Cc2c(Cl)ncnc2Cl)cc1,-3.14%
17,CCOC(=O)N1CCC(Nc2nc(N3CCOCC3)nc(N3CCOCC3)n2)CC1,0.315%
18,CCc1ccc(OCC(=O)N(Cc2ccco2)Cc2ccc(C)o2)cc1,-1.07%
19,CCCNC(=O)CSc1cn(CC(=O)N2CCCC2)c2ccccc12,5.05%
20,CCOc1cc(C2C(C#N)=C(N)Oc3ncnc(O)c32)ccc1OCCN1CCOCC1 (stereo not drawn),2.38%
21,Cc1oc2ncnc(N3CCOCC3)c2c1C(=O)N(C)Cc1ccco1,4.76%
22,Cc1ccc(-n2nc3c(=O)n(CC(=O)NCCc4ccccc4Cl)nc(C)c3c2C)cc1,-12.8%
23,COc1ccc(C(=O)NCc2cn3ccc(C)cc3n2)cc1OC,-3.51%
24,Brc1ccccc1CN1CCN(C2CCN(Cc3ccccc3)CC2)CC1,-4.43%
